# Source: PubChem BioAssay AID1745845 (National Center for Advancing Translational Sciences (NCATS), 2022)
# Where “and” joins values, the source holds several entries; their conditions need not be identical. Equal entries are not always repeated. Hit rate of the full screen: of about 360,000 compounds, about 2,600 (0.72%) were called active. Inconclusive results, whose numbers are uncertain, are shown with a selection of clear calls. Calls come from the whole dose curve; as a rule, active = well fitted inhibition curve with a large enough effect; inconclusive = small, poorly fitted or top-dose-only effect; inactive = no such curve, though single readings can be large or run the other way. A potency beside an inconclusive call is a rough fit, not a confirmed value. A structure can be active in one record and inactive in another.
# Experiment: Primary qHTS for Inhibitors of ATXN expression; note: nearly all actives have a fitted effect of over 55% in size
# Conditions: HEK-293 ATXN2-luciferase reporter, luminescence, 24 h; activity change, negative = inhibition: at 57 µM (top of the series)
# Procedure, shortened: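 qHTS (up to 57 uM final) was run with 24 h compound exposure of reporter cells at 37 °C. Each well was multiplexed: SteadyGlo luminescence measured ATXN2-luciferase expression after a fluorogenic Gly-Phe-AFC viability readout (25 uM final).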
# % is set by controls: 0 for no effect and ±100 for the full control effect; potency is the fitted concentration of half-maximal effect; tags give direction and shape of the fitted curve.
Compound,Potency,"activity change, negative = inhibition"
CCOC(=O)c1c(C)n(Cc2ccccc2)c2ccc(OCC(O)CNC(C)(C)C)cc12 (stereo not drawn),active: 14.1 µM,
COc1cc([N+](=O)[O-])c2ncccc2c1[N+](=O)[O-],"inconclusive: 39.8 µM [inhibitor, single point]",
Clc1ccc(COC(Cn2ccnc2)c2ccc(Cl)cc2Cl)cc1 (stereo not drawn),"active: 35.5 µM and inconclusive: 13.7 µM [inhibitor, partial curve, poor fit] and inconclusive: 28.2 µM [inhibitor, single point]",
O=C(NCC1=C(c2cccc3ccccc23)C[C@@H]2CC[C@H]1N2Cc1ccco1)c1ccc([N+](=O)[O-])cc1,"inconclusive: 31.6 µM [inhibitor, partial curve]",
CCC(c1nnnn1-c1ccc2c(c1)OCCO2)N1CCC(n2c(=O)[nH]c3ccccc32)CC1 (stereo not drawn),"inconclusive: 31.6 µM [inhibitor, partial curve, poor fit]",
C[C@H]1CCCC(=O)CCCCCc2cc(O)cc(O)c2C(=O)O1,"inconclusive: 39.8 µM [inhibitor, single point]",
COC(=O)c1ccc(NC(=O)CSc2nc3ccc(N4C(=O)C5C6C=CC(C6)C5C4=O)cc3s2)cc1 (stereo not drawn),"inconclusive: 31.6 µM [inhibitor, single point]",
O=C(Nc1ccc(C(=O)O)cc1)Oc1ccc(N(CCCl)CCCl)cc1,"inconclusive: 2.51 µM [inhibitor, partial curve]",
CC(C)(C)c1cc(OC(=O)Cc2ccccc2)ccc1O,,inactive: 0%
O=c1[nH]c2ccccc2n1C1CCN(C(c2cc3ccccc3o2)c2nnnn2Cc2ccccc2)CC1 (stereo not drawn),active: 20 µM,
COC1CCC(OC2CC(C3(C)CCC4(CC(O)C(C)C(C(C)/C=C(\C)C(=O)C(C)CC(C)C(=O)O)O4)O3)OC3(OC(C4OC(O)(CO)C(C)CC4C)CC3C)C2C)OC1C (stereo not drawn),"inconclusive: 5.62 µM [inhibitor, full curve, poor fit]",
CC1CCN(C(CC(=O)c2ccccc2)C(=O)c2ccccc2)CC1 (stereo not drawn),"inconclusive: 39.8 µM [inhibitor, single point]",
COC[C@H]1OC(=O)c2coc3c2[C@@]1(C)C1=C(C3=O)[C@@H]2CC[C@H](O)[C@@]2(C)C[C@@H]1OC(C)=O,"inconclusive: 15.3 µM [inhibitor, partial curve]",
CCOC(=O)[C@]12Cc3cc(OC)ccc3[C@H]1N(C(C)C)C(=O)c1cc(OC)ccc12,"inconclusive: 31.6 µM [inhibitor, single point]",
CCCCCn1c(NC(=O)c2ccco2)c(C(=O)OCC)c2nc3ccccc3nc21,"inconclusive: 39.8 µM [inhibitor, single point]",
Cc1ccc(Cn2cc(C=O)c3ccccc32)cc1,"inconclusive: 12.6 µM [inhibitor, partial curve]",
CCCCCCCCCCCCCCCC[N+](C)(C)C,active: 31.6 µM,
CCN(CC)C(=O)c1ccc(NC(=S)NC(=O)CCc2ccccc2)cc1,,inactive: -24%
CC1CCN2c3nc4ccccn4c(=O)c3CC3(C(=O)N(C)C(=O)N(C)C3=O)C2C1 (stereo not drawn),,inactive: 3.61%

Compound,Potency,"activity change, negative = inhibition"
Cc1c(C(=O)N2CCC3(CC2)OCCO3)sc2ncnc(N3CCc4ccccc4C3)c12,"inconclusive: 20 µM [inhibitor, single point]",
COc1ccc(-n2nnnc2C(CCc2ccccc2)N2CCC(n3c(=O)[nH]c4ccccc43)CC2)cc1 (stereo not drawn),"inconclusive: 4.47 µM [inhibitor, full curve, poor fit]",
COc1cccc(-n2c(=S)[nH]c3ccccc3c2=O)c1,,inactive: -5.04%
COc1ccc(-c2cc(-c3ccccc3)[n+](C)c(-c3ccccc3)c2)cc1,active: 8.91 µM,
Cc1ccc(N2C(=O)NC(=O)/C(=C\c3cc(C)n(-c4sc5c(c4C#N)CCCC5)c3C)C2=O)cc1,"inconclusive: 17.8 µM [inhibitor, partial curve, poor fit]",
O=C1NC(=O)C(=Cc2ccc(Oc3ccc([N+](=O)[O-])cc3)cc2)C(=O)N1,,inactive: -13.4%
CCOC(=O)C1(CCOc2ccccc2)CCN(C(C)CSC)CC1 (stereo not drawn),"inconclusive: 2.12 µM [inhibitor, partial curve]",
Cc1ccc(/C=C2\C(=O)NC(=S)N(c3ccccc3F)C2=O)s1,active: 31.6 µM,
Cc1nc2ccccc2c(=O)n1/N=C/c1cc(Br)cc(Br)c1O,"inconclusive: 39.8 µM [inhibitor, single point]",
C=CCON=C(C[C@H]1O[C@@H]2O[C@]3(C)CC[C@@H]4[C@H](C)CC[C@@H]([C@H]1C)[C@@]24OO3)[C@H]1O[C@@H]2O[C@]3(C)CC[C@H]4[C@H](C)CC[C@@H]([C@@H]1C)[C@@]24OO3,"inconclusive: 0.485 µM [inhibitor, full curve]",
C[CH2][Hg][S]c1ccccc1C(=O)O,active: 7.94 µM and active: 6.31 µM,
C[C@@H]1O[C@@H](O[C@H]2C[C@@H](O)[C@]3(CO)[C@@H]4C(CC[C@]3(O)C2)[C@@]2(O)CC[C@H](C3COC(=O)C3)[C@@]2(C)C[C@H]4O)[C@H](O)[C@H](O)[C@H]1O (stereo partly drawn),active: 1.58 µM,
NCCc1ccc(OCc2ccccc2)c(OCc2ccccc2)c1,"inconclusive: 28.2 µM [inhibitor, partial curve, poor fit]",
CNC(=O)c1ccc(N2C(=S)N(c3ccc(C#N)c(C(F)(F)F)c3)C(=O)C23CCC3)cc1F,"inconclusive: 43.2 µM [inhibitor, single point]",
COP(=S)(OC)Oc1ccc(S(=O)(=O)N(C)C)cc1,,inactive: -3.67%
O=c1c2ccccc2nc(/C=C/c2ccc([N+](=O)[O-])o2)n1-c1ccc(O)cc1,active: 12.6 µM,
COc1ccccc1OCC#CCN1CCCCCC1,,inactive: -20.6%
COC(=O)C1=C(c2ccc(Cl)c(C(F)(F)F)c2)C[C@@H]2CC[C@H]1N2C(=O)N1CCOCC1,"inconclusive: 25.1 µM [inhibitor, partial curve, poor fit]",
COc1cc(C(=O)NN=Cc2ccc(N(CCCl)CCCl)cc2)cc(OC)c1OC,"inconclusive: 8.91 µM [inhibitor, full curve, poor fit]",
